These results are taken from publication PMC4336329 (PLoS ONE, 2015).

Out of some 310,000 compounds screened, about 14,000 (4.5%) showed an effect of 50% or more. Effects have a minus sign here. The list shows a part of the results.
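Also: peak tail current of the secondary pulse compared with the same well before compound.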

This assay deals with human ether-à-go-go-related gene (hERG) potassium channel (human, UniProt Q12809). The assay is described as follows: primary screen, population patch clamp on CHO cells stably expressing hERG.
Chain of human ether-à-go-go-related gene (hERG) potassium channel (Q12809 whole entry, looked up): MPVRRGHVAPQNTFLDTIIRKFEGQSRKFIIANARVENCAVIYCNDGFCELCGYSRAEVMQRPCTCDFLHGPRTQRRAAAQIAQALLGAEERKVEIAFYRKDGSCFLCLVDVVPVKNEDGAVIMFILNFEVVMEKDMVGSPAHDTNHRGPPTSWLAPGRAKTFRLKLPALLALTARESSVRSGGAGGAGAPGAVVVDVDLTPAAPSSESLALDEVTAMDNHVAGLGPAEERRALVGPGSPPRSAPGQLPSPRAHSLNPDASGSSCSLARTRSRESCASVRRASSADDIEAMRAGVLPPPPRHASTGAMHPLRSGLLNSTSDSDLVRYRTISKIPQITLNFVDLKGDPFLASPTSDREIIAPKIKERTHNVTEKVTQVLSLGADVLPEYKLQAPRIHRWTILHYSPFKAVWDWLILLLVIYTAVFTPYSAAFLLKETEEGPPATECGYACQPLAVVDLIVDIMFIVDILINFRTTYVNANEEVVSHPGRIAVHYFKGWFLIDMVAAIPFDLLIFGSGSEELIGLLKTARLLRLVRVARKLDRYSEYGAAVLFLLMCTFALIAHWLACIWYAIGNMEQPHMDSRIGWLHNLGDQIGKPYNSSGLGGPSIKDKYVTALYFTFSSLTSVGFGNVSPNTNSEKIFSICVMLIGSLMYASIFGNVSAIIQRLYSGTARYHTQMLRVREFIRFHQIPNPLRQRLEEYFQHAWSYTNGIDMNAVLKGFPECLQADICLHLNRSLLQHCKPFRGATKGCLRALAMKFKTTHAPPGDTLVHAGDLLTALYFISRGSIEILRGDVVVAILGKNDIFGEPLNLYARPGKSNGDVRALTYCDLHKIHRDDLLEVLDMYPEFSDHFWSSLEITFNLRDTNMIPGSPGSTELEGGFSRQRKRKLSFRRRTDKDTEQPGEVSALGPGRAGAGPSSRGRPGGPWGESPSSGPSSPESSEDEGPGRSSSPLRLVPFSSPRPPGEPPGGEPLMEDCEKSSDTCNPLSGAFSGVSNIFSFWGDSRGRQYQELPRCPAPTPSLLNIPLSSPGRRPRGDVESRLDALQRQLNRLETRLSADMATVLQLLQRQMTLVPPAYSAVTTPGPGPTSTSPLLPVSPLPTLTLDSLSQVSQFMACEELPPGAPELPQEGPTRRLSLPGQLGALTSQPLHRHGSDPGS
For `Fc1ccc(CNc2ncccn2)cc1`, the “hERG current change (%, negative = inhibition) at 10uM” value came to 7.85%.

As for `CN(CC(=O)Nc1ccccc1Cl)C1CCCCC1`, the “hERG current change (%, negative = inhibition) at 10uM” value is recorded as -18.7%. The same measure for `CCOc1ccc(NC(=O)CCC(=O)Nc2nnc(CC)s2)cc1`: 13.9%; for `N#Cc1nc(COc2ccc(F)cc2)oc1N1CCC(Cc2ccccc2)CC1`: 0.354%; for `Cc1ccc2nc(Cl)c(C3CC(c4ccco4)=NN3S(C)(=O)=O)cc2c1` (centres unmarked): -62.6%. The same measure for `Cc1ccccc1-c1nnn(Cc2cccc(S(=O)(=O)N3CCOCC3)c2)n1`: -7.43%. As to `O=C(COc1ccc2c(c1)OCO2)Nc1nncs1`, the “hERG current change (%, negative = inhibition) at 10uM” value is 10.6%.

For the compound `C=CCc1ccccc1OCC(O)CN1CCN(Cc2ccc3c(c2)OCO3)CC1` (centres unmarked), the “hERG current change (%, negative = inhibition) at 10uM” value is -91%. For `COc1ccccc1CNC(=O)CCCn1nc(C)c2c(C)n(-c3ccccc3)nc2c1=O`, the “hERG current change (%, negative = inhibition) at 10uM” value was -3.06%. The same measure for `COc1cc(NC(=O)C2CC(c3ccc(Cl)cc3)=NO2)cc(OC)c1OC` (centres unmarked): 7.7%; for `Cc1cc(/C=C2\C(=O)NC(=O)N(Cc3ccccc3)C2=O)c(C)n1C1CC1`: 1.86%; for `Cc1ccnc(NC(c2ccccn2)c2c(C)[nH]c3ccccc23)c1` (centres unmarked): -16.2%. As to `Cc1ccccc1/C=N/Nc1ccnc2cc(Cl)ccc12`, the “hERG current change (%, negative = inhibition) at 10uM” value worked out at 1.57%. Under `COC(=O)CNc1nc(Cl)nc(N2CCC(C)CC2)n1` stands -1.04%; under `O=C(CCN1CCN(C(c2ccccc2)c2ccccc2)CC1)N/N=C/c1ccc(O)cc1`, -54.8%; under `O=C(CN(CC1CCCO1)C(=O)CNS(=O)(=O)c1ccc(F)cc1)NC1CCCCC1` (centres unmarked), -4.3%. For the compound `COc1ccccc1CCNC(=O)CSc1nnc2ccc(-c3cccnc3)nn12`, the “hERG current change (%, negative = inhibition) at 10uM” value was -49.6%. For `CCOc1ccc(NC(=O)CCNC(=O)c2ccco2)cc1`, the “hERG current change (%, negative = inhibition) at 10uM” value amounted to 6.08%.

As to `O=C(CSc1ccc(F)cc1)NCC1(N2CCOCC2)CCCCC1`, the “hERG current change (%, negative = inhibition) at 10uM” value was -24.2%. Under `O=C(CN1CCOCC1)NNC(=O)c1ccc([N+](=O)[O-])cc1` stands -4.4%; under `CCOc1ccccc1N(CC(=O)NCCOC)C(=O)CCC(=O)Nc1ccccn1`, 19.6%; under `Cc1ccc(C(=O)/C=C/Nc2ccc3c(c2)OCO3)cc1`, 15.9%. As for `COc1ccccc1Nc1cc(C)nc2c(C)ccc([N+](=O)[O-])c12`, the “hERG current change (%, negative = inhibition) at 10uM” value is listed as 4.23%.

For `CC(C)Oc1ccc(C(CCN)C2CCCCC2)cc1.O=C(O)C(=O)O` (centres unmarked), the “hERG current change (%, negative = inhibition) at 10uM” value was -8.37%. The same measure for `Cc1ccccc1N(C(=O)CNC(=O)c1ccco1)C(C(=O)NC1CCCC1)c1ccncc1` (centres unmarked): 13.1%; for `CCCCCCn1c(O)c(C=Nc2ccccc2N2CCOCC2)c(=O)[nH]c1=S`: 13.6%. For the compound `C=CCN(C(=O)Cn1c(C(=O)OC)cc2oc(C)cc21)c1ccccc1`, the “hERG current change (%, negative = inhibition) at 10uM” value worked out at 3.14%.

As for `Cc1cc2ncn(-c3ncnc4scc(-c5ccccc5)c34)c2cc1C`, the “hERG current change (%, negative = inhibition) at 10uM” value was -26.5%.

As for `O=C(CNC(=O)c1ccco1)Nc1ccc(S(=O)(=O)N2CCCC2)cc1`, the “hERG current change (%, negative = inhibition) at 10uM” value came out at 6.31%. Under `CC(=O)Nc1ccc2oc(-c3ccccc3Br)nc2c1` stands -3.6%; under `COc1ccc(/C=N/NC(=O)c2ccc(CSc3nc(C)cc(C)n3)cc2)cc1O`, -31.2%. The same measure for `COc1ccc(/C(C)=N/NC(=O)CNC(=O)CCc2ccccc2)c(OC)c1`: 0.986%.

As for `O=C(Nc1ccccc1)c1cc([N+](=O)[O-])ccc1NC1CCCCC1`, the “hERG current change (%, negative = inhibition) at 10uM” value is on record as -2.22%.

Consider `CCOC(=O)c1cc(-c2csc(-c3ccc(C(F)(F)F)cc3)n2)on1`, for which the “hERG current change (%, negative = inhibition) at 10uM” value is reported as 8.29%.

With `NC(=O)c1c(NC(=O)c2ccccc2)sc2c1CCC2`, the “hERG current change (%, negative = inhibition) at 10uM” value is 18.5%.

Turning to `CC(C)C(=O)Nc1nc2ccc(S(C)(=O)=O)cc2s1`, the “hERG current change (%, negative = inhibition) at 10uM” value is given as 5.14%. For the compound `Cc1[nH]nc(-c2ccc(OCc3cnn(-c4ccccc4)c3)cc2O)c1Oc1ccccc1F`, the “hERG current change (%, negative = inhibition) at 10uM” value amounted to 16.8%. Under `O=Cc1c(Cl)nc2ccccn2c1=O` stands -4.27%; under `O=C(NCC(=O)N(CC1CCCO1)C(C(=O)NC1CCCCC1)c1cccnc1)c1cccs1` (centres unmarked), 16.2%; under `CCOC(=O)c1cn2nc(Oc3ccc(NC(C)=O)cc3)ccc2n1`, 7.29%.

On to `CC(C)(C)NC(=O)COC(=O)c1snc(C(=O)NC2CCCCC2)c1N`, for which the “hERG current change (%, negative = inhibition) at 10uM” value is on record as -0.566%.

In the case of `CCOc1ccc(N2C(=O)C(CC(=O)Nc3ccc(F)cc3)N(Cc3ccccn3)C2=S)cc1` (centres unmarked), the “hERG current change (%, negative = inhibition) at 10uM” value is given as -3.11%. Under `O=c1[nH][nH]c(-c2ccccc2)c1C=Nc1ccc(F)cc1F` stands 3.31%; under `COc1cccc(/C=C/c2ccccn2)c1O`, -6.31%.
